Reference: PubChem BioAssay (NCI)
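Protocol summary: plate cells (96-well), add compound at 5 concentrations, incubate 48 h, interpolate endpoints linearly. GI50: concentration for 50% inhibition of growth. TGI: concentration producing complete growth inhibition.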

Test system: NCI-H322M lung
Assay: DTP human tumour cell line panel, 48 h

SMILES | GI50 [µM] | TGI [µM]
C#Cc1nc(/C=C\CCCCCCC(=O)NO)cs1 | 5.1 | 92.8
O=C(Nc1cc(Cl)cc(Cl)c1)Nc1ccc2oc(=O)ccc2c1 | 2.92 | 11
